Measured values taken from ChEMBL document CHEMBL4888484, “Replenishing the malaria drug discovery pipeline: Screening and hit evaluation of the MMV Hit Generation Library 1 (HGL1) against asexual blood stage Plasmodium falciparum ,using a nano luciferase reporter read-out” (2022).
Out of some 150,000 compounds screened, about 540 (0.36%) showed an effect of 50% or more. The list shows a part of the results.

What follows are compounds tested on Plasmodium falciparum (assay: Primary screen in NF54 nanoGlo assay, in single point, at 2uM, 72h; a lower Z score goes with more inhibition). Conditions: timepoint 72 hour.
Assay type: functional, Erythrocyte
With `CC(Cc1ccsc1)NC1CCCN(CC(F)(F)F)C1=O` (configuration not stated) the “% Inhibition” value was -5% and the Z score was 0.55. With `C=CCCC(CN1C[C@H]2CC=CC[C@H]2C1)Oc1ncccn1` (some centres not stated) the “% Inhibition” value was -8% and the Z score was 1.33. For `CN1CCCC12CCN(c1ccc3ncccc3c1)CC2`, the “% Inhibition” value was -3% and the Z score was 0.34. For `Cc1ccc(S(=O)(=O)N2CCC(C(=O)N3C[C@@H]4C[C@@H](C3)c3cccc(=O)n3C4)CC2)cc1`, the “% Inhibition” value was -17% and the Z score was 2.14. For `COc1ccc(C(=O)[C@@H]2CCCN2)cc1C`, the “% Inhibition” value was -33% and the Z score was 3.81. `CCCCCN(C(=O)[C@H]1CC12CCNCC2)C(C)C` was tested, and the “% Inhibition” value was -9% and the Z score was 1.27. In the case of `Cc1oc(-c2cccc(Br)c2)nc1CN1C(=O)CN=C(c2ccccc2)c2ccccc21`, the “% Inhibition” value was -6% and the Z score was 0.85. `CC1OCCC12CN(C1CCNC1=O)CCO2` (configuration not stated) was tested, and the “% Inhibition” value was 0% and the Z score was 0. For `COc1ccnc(NCc2c(C)cc(C)[nH]c2=O)n1`, the “% Inhibition” value was -3% and the Z score was 0.43. In the case of `COc1ccc(-c2ccc3oc(=O)[nH]c3c2)cc1OC`, the “% Inhibition” value was -5% and the Z score was 1.08. `Cc1ccc2c(=O)n(C[C@H](C)N3CCCC3)cnc2c1C` was tested, and the “% Inhibition” value was -13% and the Z score was 1.2. `CCn1nc(C)c(CN2CCc3ccnc(O)c3C2)c1C` was tested, and the “% Inhibition” value was -12% and the Z score was 1.8. With `N#CCCCCn1c(-c2cnccn2)noc1=O` the “% Inhibition” value was -4% and the Z score was 0.69. For `Cc1ccc(CN2CCN3CCN(C)C[C@H]3C2)c2cccnc12`, the “% Inhibition” value was 9% and the Z score was -2. `Cc1ccc(C)c(C(=O)[C@@H]2CCCN2)c1` was tested, and the “% Inhibition” value was -5% and the Z score was 0.67. For `Clc1cccc2ccc(CN3CC[C@H]4CC[C@@H](C3)N4)nc12`, the “% Inhibition” value was 1% and the Z score was -0.07. For `CCOc1ccc2ncc(C#N)c(N3CCC(C(=O)N4CCC5(CC4)OCCO5)CC3)c2c1`, the “% Inhibition” value was -4% and the Z score was 0.43. `O=C(NCCc1cncnc1)NCc1cccs1` was tested, and the “% Inhibition” value was -4% and the Z score was 0.58. With `Cc1cc(N2CC3(CCC3)[C@H]2c2cccnc2)ncn1` the “% Inhibition” value was 5% and the Z score was -0.74. `CCCc1nn(Cc2csc(-c3ccoc3)n2)c(=O)o1` was tested, and the “% Inhibition” value was -9% and the Z score was 1.17. `C=C(C)CN(CC)C[C@H](O)c1ccccc1` was tested, and the “% Inhibition” value was -14% and the Z score was 1.73. For `Cc1c(C)[n+]([O-])c([C@@H](c2ccc(Br)cc2F)C2C(=O)NC(=O)NC2=O)n1CCO`, the “% Inhibition” value was 1% and the Z score was -0.14. With `CC[C@H](NCCc1ccc2c(c1)OCO2)c1c(C)nn(C)c1C` the “% Inhibition” value was -5% and the Z score was 0.96. With `CCCS(=O)(=O)Nc1ccc(=O)n2c1[C@@H]1C[C@@H](CN(C(=O)Nc3ccc(F)cc3)C1)C2` the “% Inhibition” value was 27% and the Z score was -3.06. In the case of `COc1cccc(CC(=O)N2CCN(CCO)[C@@H]3CS(=O)(=O)C[C@@H]32)c1`, the “% Inhibition” value was -3% and the Z score was 0.63. In the case of `COc1ccc2c(c1)OC[C@@]1(C(=O)O)CN(CCC(F)(F)F)C[C@@H]21`, the “% Inhibition” value was 3% and the Z score was -0.33. In the case of `O=C(O)C[C@H](CC(=O)NCC1CCN(C(=O)Oc2ccccc2)CC1)c1cccs1`, the “% Inhibition” value was -6% and the Z score was 0.93. `O=C(COc1cccc(C(F)(F)F)c1)N1CC(O)C(N2CCCC2)C1` (configuration not stated) was tested, and the “% Inhibition” value was 10% and the Z score was -0.89. With `Cc1ccc(-c2nccn3cc(C(=O)N4CCC5(CC4)OCCO5)nc23)cc1` the “% Inhibition” value was -3% and the Z score was 0.4. With `CCN1CCCN(C(=O)COc2ccccc2)CC12CCOCC2` the “% Inhibition” value was -3% and the Z score was 0.33. With `C[C@@H](Cn1ccnc1)NCc1cc(F)cc(F)c1` the “% Inhibition” value was -9% and the Z score was 1.3. With `Cc1cccnc1C[C@H](C)N(C)Cc1ccc(CO)o1` the “% Inhibition” value was -6% and the Z score was 0.97. For `Cc1ccccc1-n1c(O)c(Cc2ccc(Cl)cc2Cl)c(=O)[nH]c1=O`, the “% Inhibition” value was -6% and the Z score was 0.83. For `Cc1nnc(NC(=O)Oc2ccccc2)s1`, the “% Inhibition” value was -7% and the Z score was 0.98. `COC(=O)COc1ccc(C#N)c(Cl)c1` was tested, and the “% Inhibition” value was 42% and the Z score was -4.27. In the case of `CC[C@@H](C(=O)N(Cc1ccccn1)C(C)(C)C)N1CCCC1=O`, the “% Inhibition” value was -9% and the Z score was 1.54. For `NC1(c2nc(=O)c3c([nH]2)CCC3)CCCCC1`, the “% Inhibition” value was 7% and the Z score was -1. For `O=C1NC2(CCN(Cc3ccccn3)CC2)N2CC3CCCC3C12` (configuration not stated), the “% Inhibition” value was 17% and the Z score was -2.2. `CN(C)C(=O)Oc1ccn2cc[n+](C)c2c1` was tested, and the “% Inhibition” value was -5% and the Z score was 0.73. In the case of `COc1cccc(NC(=O)N2C3CCC2CC3)n1`, the “% Inhibition” value was -1% and the Z score was 0.18. `Cc1c(C)[n+]([O-])c([C@@H](c2cccc(OC(F)F)c2)C2C(=O)N(C)C(=O)N(C)C2=O)n1Cc1ccccc1` was tested, and the “% Inhibition” value was 14% and the Z score was -1.74. `CC(=O)Nc1cccc(-c2ccc3c(c2)CNCC3)c1` was tested, and the “% Inhibition” value was -17% and the Z score was 3.42. For `Cc1ccn(CC(=O)N2C3CCC2CN(C)C3)c(=O)c1`, the “% Inhibition” value was 18% and the Z score was -2.26. In the case of `COc1ccccc1CCN(C)Cc1c(C)noc1C`, the “% Inhibition” value was -16% and the Z score was 2.3. In the case of `COc1cc2c(cc1OC)[C@H](c1cccnc1)N(C)CC2`, the “% Inhibition” value was 5% and the Z score was -0.78. `CCc1nccn1C[C@H](C)NCc1cscn1` was tested, and the “% Inhibition” value was -4% and the Z score was 0.61. In the case of `COc1nn(C)cc1NC1CCN([C@@H](C)Cc2ccccc2)CC1`, the “% Inhibition” value was -9% and the Z score was 1.67. For `O=C(Oc1ccccc1)N1CCCN(c2cc(C3CC3)ncn2)CC1`, the “% Inhibition” value was 3% and the Z score was -0.35. With `C[C@]12CCC3C(CC[C@H]4CC(O)CC[C@]34C)C1CC[C@]2(O)C#N` (some centres not stated) the “% Inhibition” value was -5% and the Z score was 0.85. For `CC1CCCCN1CC1CCCN(c2cnccc2C#N)C1` (configuration not stated), the “% Inhibition” value was -6% and the Z score was 0.8. In the case of `COCCN1CC[C@H](C(=O)N2CCC(C(C)=O)(c3ccccc3)CC2)C1`, the “% Inhibition” value was -15% and the Z score was 2.57. `CN1C[C@H](CNC(=O)c2ccccn2)C2(CCCCC2)C1` was tested, and the “% Inhibition” value was -7% and the Z score was 1.35. With `O=C(c1ccncc1F)N1C[C@H]2CC[C@@H](C1)N(CC1CC1)C2` the “% Inhibition” value was 2% and the Z score was -0.29. In the case of `O=c1[nH]c2cc(OCC[C@H]3CCCO3)ccc2o1`, the “% Inhibition” value was -8% and the Z score was 0.99. `CN1CCN([C@H]2COC[C@@H]2NC(=O)c2ccc(F)cc2)CC1` was tested, and the “% Inhibition” value was -13% and the Z score was 2. In the case of `O=C(NC1CCCCC1)Oc1cc2oc(=O)sc2cc1Cl`, the “% Inhibition” value was -15% and the Z score was 2.41.
